Test results: the supplement of paper PMC11417369
± gives the standard deviation of the averaged measurements. The list shows a part of the results.

test system: PfAP2-EXP AP2 domain (GST-tagged); assay: gcPBM binding intensity (ln(normalized median fluorescence intensity)); higher = stronger DNA binding
In short: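 After 1 h on an Agilent 4 × 180k array of primer-extended double-stranded 36-bp intergenic genomic probes and negative controls, bound GST-tagged P. falciparum DNA-binding domains were detected with Alexa488 anti-GST antibody and scanned at 488 nm. The domains had been expressed in E. coli, and binding took place in 1× PBS with 1% milk, 0.2 mg/ml BSA, 0.5% salmon testes DNA and 0.03% Triton X-100. Binding intensity is the highest Masliner-normalised natural-log median intensity across replicate spots of either probe orientation.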

Row | Sequence | gcPBM binding intensity (ln)
1 | TATAAGCAAAAACACACACACATATATATATATATA [CACACA_site3804] | 10.3 ± 0.28
2 | TTTTTATTCGATGATCAAATAGGTATATACAAAAAA [CACACA_negctrl_site1813] | 8.78 ± 0.45
3 | TTATTTAAAAAAAAGTGTACCCATATATTATAAATC [XGTACX_site8374] | 8.39 ± 0.35
4 | TAATATTATAGATAAACACACATACACATGTAAATA [CACACA_site7049] | 8.82 ± 0.46
5 | AAATGAAATTTGTATACACACAAATATATATATATA [CACACA_site836] | 10.1 ± 0.28
6 | TACTTATGTGCATACCTACACACTTACATATATATA [CACACA_site2975] | 8.9 ± 0.4
7 | GATGATGTTTATTTGTGTACATATTAATACTTAATA [XGTACX_site1902] | 8.8 ± 0.24
8 | AATTATTTACCCTATACACACAAAACCCACTAAAAA [CACACA_site4801] | 9.02 ± 0.73
9 | AAAAAAAGAATGTGAACACACACATTGAATATAATT [CACACA_site8341] | 8.46 ± 0.52
10 | AAGAACAGAACGTACACACACATATATATATATATA [CACACA_site3457] | 10.2 ± 0.23
11 | AATCATATGAAAAATACATGCGCATGGATACCTTTA [TGCATGCA_site224] | 8.82 ± 0.52
12 | TATAAATAAATACATACACACACATACATATATATA [CACACA_site9024] | 8.71 ± 0.38
13 | ATAAAATCAAAATATACACACAAGGGGGAAAATCAA [CACACA_site2809] | 8.96 ± 0.42
14 | ATAGGACATGTATCCAGTACATATTTAAAAAAAATA [XGTACX_site88] | 8.43 ± 0.33
15 | GCATATATCAAATATCGTACATTTTTTAAATTAAAA [XGTACX_site3994] | 8.42 ± 0.47
16 | TTTGTAAGTCTTTGTTGTACTCAATAGAATGAAGAA [XGTACX_site8930] | 8.77 ± 0.42
17 | TTTTCTTTTTTTTATTGTACTTATAAAAATAAATAA [XGTACX_site3498] | 8.44 ± 0.33
18 | TAAAAAAAATAGCATACACACATATATACATATATA [CACACA_site658] | 8.27 ± 0.35
19 | GTCGCCAAAAGGTGTACACATAATGCATTATCATAA [CACACA_site6112] | 9.05 ± 0.42
20 | TGATAACCTAATAATACACACACATGAATATATATA [CACACA_site8226] | 8.61 ± 0.32
21 | ATATTTAGGATTATCTGTACATAATATGTTTAATTA [XGTACX_site3426] | 8.44 ± 0.4
22 | TACACATAATATAATGCATGTGTGATGTATGTTTAA [TGCATGCA_site697] | 8.65 ± 0.35

Row | Sequence | gcPBM binding intensity (ln)
23 | ATTAAAAAATTATTCACACAAAATAAAAAAATGAAA [CACACA_site4918] | 8.5 ± 0.51
24 | AAAATTATTTTTATGTGTACTTATTTATTATTTATA [XGTACX_site6665] | 8.55 ± 0.28
25 | TTGTATTCCTTTTACAACTACCATGAAGAGAATTTT [CACACA_negctrl_site1286] | 8.46 ± 0.38
26 | AAAAAAAAAAAAAAGGTGCAAATAAATTAACCTTAT | 8.71 ± 0.36
27 | AAAAAAAACGCACATACACACACACCCATATATATA [CACACA_site9118] | 8.72 ± 0.3
28 | AAATGTTAAAATGACAGTACATATATAAAAAAAAAA [XGTACX_site3936] | 8.65 ± 0.38
29 | TTTTATTTTTTCCGACGTACATCCATTATATATAAT [XGTACX_site4469] | 9.1 ± 0.54
30 | CTAGGAAATTATATGGGTACTCATATTCATAAAAAA [XGTACX_site1846] | 8.45 ± 0.42
31 | AAATATTTGGAGAAATGTACATATTATAAATATATT [XGTACX_site6885] | 8.72 ± 0.4
32 | TAAAAAAAAGGAAATACATGCATCTACATATATATA [TGCATGCA_site500] | 8.7 ± 0.14
33 | AAAAACTAACTGTATTGTACTCTCTTATAAATTCAC [XGTACX_site8967] | 8.41 ± 0.33
34 | ATATATTTCATTTTTGTACACACAACGTTGGAGGGT [CACACA_site8999] | 8.84 ± 0.39
35 | AAAAAAAAAATATATATATATATATAATATATATAT [TGCATGCA_negctrl_site329] | 9.2 ± 0.11
36 | ATATAGGTAATAATAATACACACGGTGAAATATAGA [CACACA_site4040] | 8.85 ± 0.32
37 | TATTGTAAAGTGTCATTATTACGTTATATTATATAT [CACACA_negctrl_site98] | 8.42 ± 0.37
38 | GACAATATTAAAACATGTACATGCATTTTATGAATA [XGTACX_site553] | 8.96 ± 0.29
39 | TATAATATAAAATATGCACACATTGGAATGGGAGAA [CACACA_site3746] | 8.97 ± 0.35
40 | AAAAAATTTATAAAAGCACACAAAATAAAAAAAAAT [CACACA_site8420] | 8.69 ± 0.48
41 | TATAAAGACACGTACACACACTAAGTATATCCAATA [CACACA_site6855] | 8.54 ± 0.42
42 | ATATAAGTATACACATGTACATATTTCTTATGTATA [XGTACX_site2854] | 8.68 ± 0.41
43 | GTATGATGTGAACATTGTACGAATGAATATATCTAA [XGTACX_site3789] | 8.39 ± 0.36
44 | AAAATGTTAAATATTAAATATGAAACAAAAAAAAAA [GTGCAC_negctrl_site211] | 8.42 ± 0.55

Row | Sequence | gcPBM binding intensity (ln)
45 | TCCAAATGAAAAAATTGTACATATTTTATCATATAT [XGTACX_site6159] | 8.39 ± 0.34
46 | TAAATACATTTATATACACACCTATATATATATATA [CACACA_site5137] | 10 ± 0.54
47 | TATAATTTAAAATACACACACATATATATAATATAT [CACACA_site2000] | 8.61 ± 0.67
48 | ATAAGAAATTTCATACGTACATAAATAAATATATAT [XGTACX_site2932] | 8.68 ± 0.2
49 | AAAATTTATTATCTATATAATAATATGAAACAAAAC [GTGCAC_negctrl_site731] | 8.8 ± 0.39
50 | TTTCATTTTTGAAGGTGTACTTAAAATTTATGTAAT [XGTACX_site6671] | 8.37 ± 0.28
51 | CTCATTTTGTTAATGGTGCAAAAAAAAAAAAAAAAA | 8.49 ± 0.22
52 | ATGAAAAAAAGACATGCATGTAAATATAAATTGCTT [TGCATGCA_site504] | 9.47 ± 0.28
53 | TATTTAAAACTATACACATGCATTATATAAAGATAT [TGCATGCA_site702] | 8.79 ± 0.4
54 | AGTAAGAGGCATTAAGCATGCATATTATTATAAGCA [TGCATGCA_site237] | 9.1 ± 0.23
55 | CATTATAAGAGACACACACACATATATAAATATGTA [CACACA_site6621] | 8.47 ± 0.34
56 | TTATAAAATATATATACATGCACAAAATTATAAGTA [TGCATGCA_site294] | 9.11 ± 0.3
57 | AATCAACATTTTTTTTGCTATTTTTTTTTTTAATTA [CACACA_negctrl_site891] | 8.32 ± 0.52
58 | AAAAAAACATAAAATACACACAACCTTAAGAATGTA [CACACA_site3293] | 8.57 ± 0.38
59 | TATACACTTGTAATAACACACATTATTTTTTTTTTT [CACACA_site1324] | 8.41 ± 0.41
60 | ATAAAAAATTTAAGTATTTTTTACAAACCTATAAAT [GTGCAC_negctrl_site51] | 8.18 ± 0.38
61 | TTATATTTATATGTAATACAAAATAACAAAAAATTT [CACACA_negctrl_site1721] | 8.29 ± 0.46
62 | TATATATATATATCCACACACATACATATATTAATA [CACACA_site69] | 10.2 ± 0.26
63 | TTGGTAATTTTAAAATGTACTTATTATATATATATA [XGTACX_site5642] | 9.79 ± 0.61
64 | ATTTTTTTTTGTTTAATGTTATGTGGTCATTAAATT [CACACA_negctrl_site1177] | 8.63 ± 0.49
65 | TATTTATTCACTTATTGTACTTATATATATAATAAA [XGTACX_site6147] | 8.61 ± 0.51
66 | AAATTAAAAGAAAATACACACCTGTGGGTGCTTATA [CACACA_site5143] | 8.44 ± 0.13

Row | Sequence | gcPBM binding intensity (ln)
67 | TTTTGTTGTTGTTGTTGTACATAAATAATAAAATAT [XGTACX_site8681] | 8.59 ± 0.26
68 | ATATATTTTTTTTAGCGTACATGCAAAAAAAAAAAA [XGTACX_site4590] | 8.74 ± 0.32
69 | TCATAAATTAAACACACACACACATCTGGATACCCC [CACACA_site9096] | 9.2 ± 0.53
70 | AATTAACCGAAACACACACACATATATATATATATA [CACACA_site3963] | 10 ± 0.39
71 | TATACACACAGACATGCATGCACATATATATATACA [TGCATGCA_site30] | 9.94 ± 0.22
72 | CATATTTTGAACTTCACACATATATATATATATATA [CACACA_site4228] | 10.2 ± 0.3
73 | GGTAGATTATTATTAACGAAAAATGTTTTTAACATA [GTGCAC_negctrl_site216] | 8.12 ± 0.41
74 | AATAATTGTTATAGTTGTACAATACATATATTACAA [XGTACX_site30] | 8.48 ± 0.34
75 | AATAATTGTAGACATGCACACACAAATATTATATAT [CACACA_site8181] | 8.89 ± 0.38
76 | CCTTTCTATTGAAAATGTACATATATATTATTATAT [XGTACX_site5527] | 8.46 ± 0.33
77 | TGTATATATAAAAATATACACACTGTATTATTGTAA [CACACA_site3757] | 8.1 ± 0.36
78 | AATATATATACTTTTTTTTTTTTTTTTTTTTTTTTT [CACACA_negctrl_site520] | 9.165 ± 0.049
79 | TTTAGCACAAACAAAAAAAAAATAGAAAAAAATATA [CACACA_negctrl_site1772] | 8.49 ± 0.49
80 | ACAAATTGTTAAAGGTGTACAATACATATATAAGAA [XGTACX_site4906] | 9.09 ± 0.37
81 | TATGTTTACATATACGTGCACATGAATGTATACATT [GTGCAC_site9894] | 8.785 ± 0.035
82 | AAAAAATAAATAAATAGTACTTTAAAAGAAAAAAAA [XGTACX_site5051] | 8.49 ± 0.47
83 | TATATACAGAATATATGTACATATTCATTTTATATT [XGTACX_site5139] | 8.47 ± 0.23
84 | AAATAAAAAATGGAAATCTTAACAAGAATCATTAAC [CACACA_negctrl_site1626] | 8.42 ± 0.37
85 | TTGTTTAACTTGTTAAATATAATGTATCTGTGGATA [GTGCAC_negctrl_site108] | 8.12 ± 0.4
86 | CAATGTTACTATAATACACACAATATGTATTTGTCT [CACACA_site6668] | 8.5 ± 0.34
87 | AAAGAAAACCAAGTGGTGCATTTTCGTTACTTCATC | 8.63 ± 0.099
88 | AATTATTTACCCTATACACACAAAACAGACTAAAAA [CACACA_site6688] | 8.77 ± 0.4
